Assay results published in PubChem BioAssay AID686979 (National Center for Advancing Translational Sciences (NCATS), 2013).
Screen size: about 420,000 compounds; about 50,000 (12%) were called active. The inconclusive results got no clear call from the source; some entries with a clear call stand among them for comparison. The call rests on the fitted dose curve; in most records, active means well fitted inhibition curve with a large enough effect; inconclusive means small, poorly fitted or top-dose-only effect; inactive means flat fitted curve, though single readings scatter. Potencies of inconclusive entries are left out as doubtful fits.

test: qHTS for Inhibitors of human tyrosyl-DNA phosphodiesterase 1 (TDP1): qHTS in cells in presence of CPT; conditions: chicken DT40 Tdp1-/-;hTDP1 cells + 20 nM CPT, ATP luminescence, 48 h; series mostly up to 46.2 µM; further: nearly all actives have a fitted effect of over 55% in size
How it was run: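 Chicken DT40 Tdp1-/- cells stably complemented with human TDP1 were seeded at 400 cells/well in medium containing 20 nM camptothecin, exposed to pin-transferred compounds, and grown at 37 °C for at least 48 hr. Viability was read as ATP luminescence.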
Potency means the concentration at half of the fitted maximal effect; tags describe the fitted curve by direction and shape.

Row | Structure (SMILES) | Potency
1 | COc1ccccc1N1CCN(C(=O)c2cn(-c3ccccc3)nc2-c2cccnc2)CC1 | inconclusive [inhibitor, single point]
2 | COc1ccc(CCNc2ncnc3c2cnn3-c2cccc(Cl)c2)cc1 | inconclusive [inhibitor, single point]
3 | COc1ccc(-c2nc(-c3cccs3)c(-c3cccs3)[nH]2)cc1OC | inconclusive [inhibitor, single point]
4 | CCCn1c(=NC(=O)CCS(=O)(=O)c2ccccc2)sc2cc(S(N)(=O)=O)ccc21 | active: 20.6 µM
5 | CCOC(=O)N1CCN(C(=S)NC(=O)c2ccc(Br)cc2)CC1 | inconclusive [inhibitor, single point]
6 | COc1ccc(-c2ccnc(SCC(=O)N3CCN(c4ccccc4)CC3)n2)cc1 | inactive
7 | COc1ccc(OCCCCn2c(C3CC(=O)N(c4cccc(Cl)c4)C3)nc3ccccc32)cc1 (stereo not given) | active: 8.2 µM
8 | NC(=O)c1ccsc1NC(=O)COC(=O)CNC(=O)c1ccc(Cl)cc1 | inactive
9 | COc1ccc(NC(=O)CSc2nc3ccccc3n2CC(=O)N(C)c2ccc(F)cc2)cc1 | inconclusive [inhibitor, single point]
10 | Cc1nn(C)c(N)c1C(O)(c1nccn1C)C(F)(F)F (stereo not given) | inactive
11 | CCN1C(=O)C(=O)c2cc(C)ccc21 | active: 4.61 µM
12 | Cc1ccc(Cn2ccnc2SCC(=O)NCc2ccc(F)cc2)cc1 | inconclusive [inhibitor, single point]
13 | CCOC(=O)c1cnn(-c2ccc([N+](=O)[O-])cc2)c1N | inactive
14 | Cc1ccc(Cn2cc(/C=N/Nc3ccc([N+](=O)[O-])cn3)c3ccccc32)cc1 | inconclusive [inhibitor, single point]
15 | C[C@H](CO)N1C[C@H](C)[C@@H](CN(C)S(=O)(=O)c2ccccc2)Oc2ccc(NC(=O)Nc3ccc4c(c3)OCO4)cc2C1=O | inconclusive [inhibitor, single point]
16 | CCCN1CCN(CCNC(=O)Nc2ccc(OC)c(OC)c2)CC1 | inconclusive [inhibitor, single point]
17 | Cc1ccc(/C=C/C(=O)Nc2nnc(SCc3ccc(C#N)cc3)s2)o1 | inconclusive [inhibitor, partial curve]
18 | CC1Sc2ccc(S(=O)(=O)CCC(=O)N(C)Cc3ccccc3)cc2NC1=O (stereo not given) | active: 18.4 µM
19 | Cc1cc(NC(=O)c2cccc([N+](=O)[O-])c2)n(-c2ccccc2)n1 | inactive
20 | O=C1C(=O)N(CCCn2ccnc2)C(c2ccc([N+](=O)[O-])cc2)/C1=C(\O)c1ccc2c(c1)OCCO2 (stereo not given) | inactive
